Test results published in the supplement of paper PMC3724861.
The list shows a part of the results.

System: T1, Caupolican (Caup) homeodomain DNA-binding domain
T1 sequence: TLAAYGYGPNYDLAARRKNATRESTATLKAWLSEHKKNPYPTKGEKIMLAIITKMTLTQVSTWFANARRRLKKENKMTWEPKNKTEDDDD
Test: PBM E-score (8-mer, recovered from the published 9-mer minima) (E-score (dimensionless, -0.5 to 0.5)); Drosophila protein; higher = stronger relative binding preference, active = 0.31 or more
How it was run: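 Caup's homeodomain DNA-binding domain (residues 214-303) was made by in vitro transcription and translation and applied at 100 nM to custom-designed protein binding microarrays. Each value is an enrichment score that gives relative binding preference for a short DNA word, with higher meaning stronger. The 8-mer values were recovered from published 9-mer scores, each of which was the minimum of its two constituent 8-mer scores. A cutoff of 0.31 marks candidate sites.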

Sequence | PBM E-score
TCCAATAA | inactive: 0.0481
GACTGCAA | inactive: 0.00269
ACACATCC | inactive: 0.124
ACATAGAC | inactive: 0.201
CGCCCCGC | inactive: -0.246
GGTGTTGA | inactive: 0.0856
AAGGCAAT | inactive: 0.00024
AAGCCCAG | inactive: -0.11
ATAGCCTG | inactive: 0.0385
CTGACAAA | inactive: 0.132
CAACCACA | inactive: 0.0655
AAAGGATT | inactive: 0.0321
ATACTGGA | inactive: 0.0737
AGCACCGA | inactive: -0.00623
AAAAGGCA | inactive: 0.00892
AAAGTGCT | inactive: 0.0144
TGTACACA | active: 0.407
ACCCCGGA | ≥ -0.0927
GCACTCAA | inactive: -0.0869
ATATCACG | inactive: 0.127
CGCATAAA | inactive: 0.0773
CCTGATTC | inactive: -0.00755
ATTAAGAC | inactive: 0.0818
CATTCAGA | inactive: -0.0203
ATCCGCTA | inactive: -0.0754

Sequence | PBM E-score
ACACATGT | active: 0.372
GCGTGTCC | inactive: 0.223
CATTAACG | inactive: 0.112
AAGAATCA | inactive: 0.134
ACCTGGGC | inactive: -0.195
GGTTGAAC | inactive: 0.0642
CCCCGGGG | inactive: -0.3
CAATCCCG | inactive: -0.047
GAAGCACA | inactive: 0.0307
ATACCGTG | inactive: 0.154
ATTTCTAC | inactive: 0.0511
ACTACTTG | inactive: 0.262
AACTTAAC | inactive: 0.0987
GCACGTGA | inactive: -0.0192
AGGCAGGC | inactive: -0.23
AGGGTATG | inactive: 0.0849
ATGGACAA | inactive: 0.249
AACTGTGG | inactive: 0.0281
CGGAAAAA | inactive: 0.0139
ATTATCGC | inactive: 0.0263
CCAATTCC | inactive: 0.0217
ATACTCAT | inactive: 0.167
CGCGTCAG | inactive: -0.0788
GAGAGGAA | inactive: -0.0698
AATCAAAT | inactive: 0.141

Sequence | PBM E-score
ATTTAACA | inactive: 0.279
AGAAAGGA | inactive: -0.116
ACCAGAAC | inactive: 0.0464
CTTCTTCC | inactive: -0.072
TGAGATCA | inactive: -0.0367
AGCCAACC | inactive: -0.104
AAGACGAC | inactive: 0.0966
ACGTTTGG | inactive: 0.0157
ACACTGCA | inactive: 0.0644
ACCGGGGA | inactive: -0.177
GTGTAAAC | inactive: 0.293
ATGTATCG | active: 0.337
ATCAGGTG | inactive: -3e-05
CTAAAGCA | inactive: 0.00186
AAGGCATC | inactive: -0.0476
CGAGTGCG | inactive: -0.0787
AGAGACTC | inactive: -0.0898
CTAGAGTC | inactive: -0.084
TCCGAAGA | inactive: -0.161
CAATACCC | inactive: 0.0149
ACCGACGG | inactive: -0.16
CGATGGCA | inactive: -0.0609
CGCAATAG | inactive: -0.0611
CTGTGTTC | inactive: 0.239
AACGCATA | inactive: -0.0123

Sequence | PBM E-score
CAGAAAGG | inactive: -0.149
TTACGCAA | inactive: 0.0821
AGTCACAG | inactive: 0.0714
CCCCCGCA | inactive: -0.226
GTACAGTA | inactive: 0.209
AACAGTGA | inactive: 0.0473
CTTCAATA | inactive: 0.12
TGGCGAAA | inactive: -0.0635
TAGCACAA | inactive: 0.0785
GCGTCCAA | inactive: -0.144
GTGATAAA | inactive: 0.00709
TACGCTCA | inactive: -0.00447
CGGAGAAC | inactive: -0.023
CAGGGAAG | inactive: -0.155
TAAGACTA | inactive: 0.0925
GAGAATCC | inactive: -0.145
GAATTTGA | inactive: -0.00072
GAAGGGAA | inactive: -0.177
AACTCGAG | inactive: -0.0398
AAAGATCG | inactive: -0.0799
CGTCTCAG | inactive: -0.0946
ACCTCTCC | inactive: -0.167
CTTAATAC | inactive: 0.0345
ACAGTGGA | inactive: 0.0583
CATAGCTC | inactive: -0.0402

Sequence | PBM E-score
CGAGCGTA | inactive: -0.0126
CGATGATA | inactive: 0.0138
CAGGGTCC | inactive: -0.191
ACGATGTA | active: 0.36
CAGATTAC | inactive: 0.177
ATTTACCC | inactive: 0.0529
GGAGTGTA | inactive: 0.0526
ACCATAAA | ≥ 0.127
CCCAATAC | inactive: -0.0626
AAGAACCC | inactive: -0.0901
TAGACGAA | inactive: 0.0142
AGAGTGCA | inactive: 0.0131
GAGTGTCA | inactive: 0.0896
CTTAAAGA | inactive: -0.0138
CATAACAG | inactive: 0.0846
AGGAACGG | inactive: -0.132
CTTTGGTA | inactive: -0.118
ATTAACAC | active: 0.326
GCCCACCA | inactive: -0.195
AACTTGTA | active: 0.364
CCCAAGCG | inactive: -0.138
CATATGAA | inactive: 0.0819
GAGATCTA | inactive: -0.0358
GTACTCGA | inactive: 0.114
TGTTACAA | active: 0.42

Sequence | PBM E-score
ACGCTCGC | inactive: -0.12
AGAGTCTG | inactive: -0.102
GGAGCTAC | inactive: -0.0961
TAGCCAGA | inactive: -0.0945
AGCTAATC | inactive: 0.0404
GTCCACGA | inactive: -0.0514
AGCCCAGC | inactive: -0.172
AATTGTAA | inactive: 0.209
ATGCTTAA | inactive: 0.0943
CATCACGC | inactive: -0.0712
AAGCTACA | inactive: 0.15
CATTCCTC | inactive: -0.0336
GACCCTTA | inactive: -0.124
GAAACCTA | inactive: -0.0661
AAGATTAA | inactive: 0.1
ATTTGTAC | inactive: 0.277
CATAGACA | inactive: 0.228
GAGTCTGA | inactive: -0.0772
TCATGTAA | active: 0.427
AGCGGCCC | inactive: -0.254
AAATGCGT | inactive: 0.0483
ACTACAGT | inactive: 0.151
ATGTTGCC | inactive: 0.121
GCGTTCAC | inactive: -0.0456
CAAGCCTG | inactive: 0.00099

Sequence | PBM E-score
ATACCTAT | inactive: 0.118
ACTTCTCC | inactive: -0.102
ATAGAGGG | inactive: -0.0428
CGTAGGTC | inactive: -0.0431
AACATCAA | active: ≥ 0.316
GCGAGTGA | inactive: -0.141
TGGTAAAA | ≥ 0.125
ACTAAGAT | ≥ 0.127
CAATCCGC | inactive: -0.106
CGAGAGAC | inactive: -0.12
CGTCTCAC | inactive: -0.0206
AATGCAAG | inactive: 0.0828
GAGCTGAA | inactive: -0.0913
ATATATTG | inactive: 0.153
CTATTTAC | inactive: 0.203
ATTGGGCG | inactive: -0.135
AATCACGC | inactive: 0.0789
ACCGAGTA | inactive: -0.00765
GGCTTATA | inactive: -0.0604
TCCCGCCA | inactive: -0.22
CTGGTATA | inactive: 0.109
TATTGCGA | inactive: -0.0121
TCCAAGAA | inactive: 0.00283
AAGCTAAG | inactive: -0.105
CCACGGAG | inactive: -0.126

Sequence | PBM E-score
CACCCAGG | inactive: -0.099
CCAGTTTC | inactive: -0.129
TTCTCAAA | ≥ 0.12
CTAAACCC | inactive: -0.0636
GCTCTGCA | inactive: -0.166
AAGCTTAA | inactive: -0.0246
CACCACGG | inactive: -0.0772
AACTACCA | ≥ 0.181
GGTCGTCA | inactive: 0.0554
CACATACA | inactive: 0.232
CAAACTTA | inactive: 0.0306
ATTTTGGG | inactive: -0.121
ACGGTGAA | inactive: 0.0334
GTCGTCAC | inactive: 0.0152
GCCTGTGA | inactive: -0.0406
CCTAAACC | inactive: -0.0841
CTAGATCC | inactive: -0.0709
CCCAACAA | ≥ 0.196
AGCATGCT | inactive: 0.092
CGACACAG | inactive: 0.163
GGTCTCAA | inactive: -0.0699
ATTATTAG | inactive: 0.152
CTACGTTA | inactive: 0.128
GAATTAAA | inactive: -0.0173
ACCGCCGG | inactive: -0.244

Sequence | PBM E-score
TAGTACTA | inactive: 0.236
GTTGTTCA | ≥ 0.292
AGCACTTA | inactive: 0.0785
ATTAGGTC | inactive: 0.0688
CCGAGCAA | inactive: -0.0521
CAGATAGA | inactive: -0.0148
CCGCACCA | inactive: -0.0769
GGAAGCCA | inactive: -0.191
CCGTGGTC | inactive: -0.196
CGAGAACA | inactive: 0.151
GATATGCC | inactive: -0.0423
CGTAGTGC | inactive: -0.0568
CCGAAACG | inactive: -0.0407
ATAGGCTC | inactive: -0.131
CCAAGAGC | inactive: -0.196
CAATTTAC | inactive: 0.188
GTCTTAAC | inactive: 0.129
CCCCAGTA | inactive: -0.124
CCGGGAGA | inactive: -0.117
CGAAGAAA | inactive: -0.0325
TAAACTAA | inactive: 0.177
AGTGATCC | inactive: 0.037
AAATGTAC | inactive: 0.279
ACGAGTCA | inactive: -0.0247
